From PMC12136788 come the findings set out here.

First the molecules themselves.
B1: chr7:151048522:151048523:+_ENSG00000013374_ENST00000566856|hu_mus|hu_hu_hu_mus_True|88_98 (ssRNA)
RNA: GGGAGUUCUACAGUCCGACGAUCCUGUUUCUUAUUUAUGACAAUUUUGAUAUAAUUUUCUUGAAAUCCGAAAGUUUCAGCUAUUUGACACCUCAGGUCUCUACCAGUGACAUGCAAGCGGGUCUCCAACAAGCUUUUCUUAUCCAACAGAGGAUUGAGCAUCA
B2: 86457377_86457497_3171_CDS_ENSMUSG00000013033_ENSMUST00000141158|mouse|control|control (ssRNA)
RNA: GGGAGUUCUACAGUCCGACGAUCGACGCGGCUAGACUCCUUAUUGAUAGAUGCUGCGAUGACCUGUGAGUUGACCACCAGGGAGGCACCUCCAGGGCCACCUGUCCCUGCCUCACCUGCCAGCUUCACUGUGGCAUUCUCCGUCAACAGAGGAUUGAGCAUCA
B3: chr5:10264850:10264851:+_ENSG00000150753_ENST00000503026|hu_mus|FALSE|FALSE (ssRNA)
RNA: GGGAGUUCUACAGUCCGACGAUCAAAUGGUACAGUUUAUUCUUCAGAUUCUCCAGGCUUACGGAUGUCAUCAAUCUUCAGAAUCAUCCUAACCAUCUGGGUGGCAAGAGAGAUCUGCUGCUUUUUGCCAAUCAAGGUUUCUAUCAACAGAGGAUUGAGCAUCA
B4: 27456595_27456914_3540_CDS_ENSG00000084774_ENST00000264705|human|control|control (ssRNA)
RNA: GGGAGUUCUACAGUCCGACGAUCCACCACACCAUCAGAGGCCACGGCAUCCACGUCAAUCUCCUUAGCCUCCUGGAUGAACUUGGAGAUGACCACGGGAUGCUCUUUGGAGACGGCUGCUGCGCUGCUCAGGAAGCGCUCCAGCAACAGAGGAUUGAGCAUCA
B5: chr12:41043843:41043844:-_ENSMUSG00000055917_ENSMUST00000069637|mus_hu|FALSE|FALSE (ssRNA)
RNA: GGGAGUUCUACAGUCCGACGAUCUUUGGAUUUGAACUUCACAUGGCAGCCAUAACAUCUGCAUUGGUGAACUUGCCUCCGAAUAAAAUUGACCAGUUUCACUUGCUGAUAGAAAUUUAAUCCAAGUUCUGACUUUAUUUUGAGCAACAGAGGAUUGAGCAUCA
B6: 111873916_111874186_6390_CDS_ENSMUSG00000018707_ENSMUST00000018851|mouse|control|control (ssRNA)
RNA: GGGAGUUCUACAGUCCGACGAUCGCCUGCACUUACAAGCACACUCUUCAAAGCCCGAAGCCCAAAGUCAUAAUGGCUUUGAGAAGACAGUUGCUCAUCACACAGUUUGAAGAACGGGACGAUCUUGUUGGCAAGGACCUCAGCCAACAGAGGAUUGAGCAUCA
B7: chr16:94690093:94690094:+_ENSMUSG00000040785_ENSMUST00000117648|mus_hu|mus_mus_mus_hu_True|18_88 (ssRNA)
RNA: GGGAGUUCUACAGUCCGACGAUCGGGCUGGGAUGACGGACACACAGAUCUUCCCAGAGGGGGAAAAAGUCUUAGUCGAUACUAAUUAAAAAGUGUUAAUGAUUUUUGAAAAUCAGAUGUAGAUUAAAAAAGAUGAAAAGCAAACAACAGAGGAUUGAGCAUCA
B8: chr20:57570089:57570090:+_ENSG00000101158_ENST00000344018|hu_hu|motif|central (ssRNA)
RNA: GGGAGUUCUACAGUCCGACGAUCAAAAUUUACUUAUUACUUGUUCUUAGCAAAUUAAGACAAUUACAAUAAAACAUCAGCGGACUGGGUUCUUGUGAGAAAACUGAGGUCAGCUUGGAAAGGAGUUCCCCGAGUGGAGUUCCCCAACAGAGGAUUGAGCAUCA
B9: chr5:145543945:145543946:-_ENSG00000133706_ENST00000545646|hu_mus|motif|central (ssRNA)
RNA: GGGAGUUCUACAGUCCGACGAUCCUGAACGGCCAGUGGUGGGAAAUAAUCAAGCCAGUGCUCUGCUUCAGAAAACUUCACGGUGUCGUCAUCAGAGAGCCCAAGGGAUUUCAUAAUGUCCCACUGGUACUUAGAAGAUCCUGCCAACAGAGGAUUGAGCAUCA
B10: 61654354_61654474_902_CDS_ENSG00000171316_ENST00000423902|human|control|control (ssRNA)
RNA: GGGAGUUCUACAGUCCGACGAUCCUGGUAGGGGGCUCGUAUCUGGUCUGGUACCUGAACAGCCCUGGGGCCCCACAUGGAGCUGCUGUCCACAAAGGAUUGCCCAUGCCUCUCAUUCUGCAUGCCAGGGUAGACACCCAUCUGCAACAGAGGAUUGAGCAUCA
B11: chr3:167401952:167401953:-_ENSG00000114209_ENST00000497056|hu_hu|motif|central (ssRNA)
RNA: GGGAGUUCUACAGUCCGACGAUCAAAAGAAUGAUAAUAGCAAAAGUGAUGCAAAAUCUUCAGUGUGAGAUUAUGAUUAAGCGGCAUUUUACAAAAAUAUGGUGUAAGAUGGCAAUAAUCCCAUUCAACAUCCUGGAUUAGAUCCAACAGAGGAUUGAGCAUCA
B12: chr9:56975896:56975897:+_ENSMUSG00000042557_ENSMUST00000167715|mus_mus|FALSE|FALSE (ssRNA)
RNA: GGGAGUUCUACAGUCCGACGAUCACAUCAAAGCAUAUUUCUUUAAUAAAAAAUUGACAGUAUGUACAUUAUUUACAAAAAAGAAAAACCAAGUUAAAAUUGUGUGUGUGUGCAUGUGUGCGUGUGAGAGAGAAGCUGGUGGAUCAACAGAGGAUUGAGCAUCA
B13: chr4:95690885:95690886:+_ENSMUSG00000028572_ENSMUST00000156910|mus_mus|mus_mus_mus_hu_False|68_78 (ssRNA)
RNA: GGGAGUUCUACAGUCCGACGAUCUUUAGAAAAUGUUAAAUACCAUGCUAAAAUAUUGUAAUUUUAAAGUCUUAUUUUACCAGAAGUCACAGGCAAGCAGACACUACAAGAAUAUAUGAAAAUGAAACUCAACAAUAUAACUGUCAACAGAGGAUUGAGCAUCA
B14: 165947601_165947721_5469_CDS_ENSG00000153253_ENST00000283254|human|control|control (ssRNA)
RNA: GGGAGUUCUACAGUCCGACGAUCAUCAAUUCCAGCUUCCUUUUUAACAUAGGCAAAGUUGGACAUCCCAAAGAUGGCAUAGAUAAACAUGACCAGGAAGAGCAGGAGGCCGAUGUUAAACAACGCAGGAAGGGACAUCAUCAACAACAGAGGAUUGAGCAUCA
B15: 143576987_143577107_468_3pUTR_ENSMUSG00000039477_ENSMUST00000151477|mouse|control|control (ssRNA)
RNA: GGGAGUUCUACAGUCCGACGAUCCGCUCCGCGGCGUGCAUGGCGGCGGCCAGCGGGGCUUGCGCUCAACCACGGGCCCGCGGCCCGGGGCGCAUGAACCGCCCGCGGUGAGUCCCCUCCGGGCGGCUGAGCGGAGAUGAGGAACAACAGAGGAUUGAGCAUCA
B16: chr1:39494447:39494448:+_ENSG00000168653_ENST00000372967|hu_mus|hu_hu_hu_mus_False|68_98 (ssRNA)
RNA: GGGAGUUCUACAGUCCGACGAUCGCACCGAGCGGCGAUCUUGUAGGGCUGUUCUGCGCUUAGGAACGUCAACCAUCGGUCCAGGCUGAUGCCCAGCUUUUUCUGUAUGUCAAGGAAAGGCAUGGCUCUGCAGUGCCCUUGUCACAACAGAGGAUUGAGCAUCA
B17: chr16:94690093:94690094:+_ENSMUSG00000040785_ENSMUST00000117648|mus_hu|mus_mus_mus_hu_True|48_78 (ssRNA)
RNA: GGGAGUUCUACAGUCCGACGAUCGGGCUGGGAUGACGGACACACAGCCUCGAUUCCGGUAAAAAAAAGUCUUAGUCGAUACUAAUUUAAAAAGUAUAAUGAUUUUUGAAAAUCAGAUUACAUCUAUAAAAGAUGAAAAGCAAACAACAGAGGAUUGAGCAUCA
B18: chr1:184663225:184663226:-_ENSG00000116406_ENST00000318130|hu_mus|FALSE|FALSE (ssRNA)
RNA: GGGAGUUCUACAGUCCGACGAUCCACCAGAGUCUUUCCAGAGAGUCAUAGUUCAUCCUUCUCCAUCAUUUCAAAUGCUUCUAUGUCUUCAUUCCAGUCUGCUAAUAUGGAGUCUAUAGGCUGGGCCUUUGUACCCCAGCUGACCAACAGAGGAUUGAGCAUCA
B19: chr1:58468927:58468928:-_ENSMUSG00000026034_ENSMUST00000148330|mus_mus|mus_mus_mus_hu_False|1_38 (ssRNA)
RNA: GGGAGUUCUACAGUCCGACGAUCAAUUACUGAAAAAGAUGUUCAUUACCUUAGCUAUGUACUUAAUGAACCAAAUUACCCAAACAAAAUAAACAUGUUUACAAAUUAAUGUUAAGAAUUUACAAAGCUGUACAAAAAGACUGACAACAGAGGAUUGAGCAUCA
B20: chr18:56819859:56819860:+_ENSG00000166562_ENST00000588875|hu_mus|hu_hu_hu_mus_True|78_78 (ssRNA)
RNA: GGGAGUUCUACAGUCCGACGAUCAACCUUGAUUACUCUGUGAACUAUCGGAAUGUCUCGUCCUUCAACCUUAAAAACAACUAUUUCACCAGCUCUGAUGGGGUCCUCCCGGAAAUUCGUGAGGAACAGCAGAUCUCCUCUGUGCAACAGAGGAUUGAGCAUCA
B21: chr12:111929536:111929537:-_ENSMUSG00000021270_ENSMUST00000094361|mus_hu|FALSE|FALSE (ssRNA)
RNA: GGGAGUUCUACAGUCCGACGAUCAGCUCAGAACACUUCAAUAACAAGAUUUGGUCUACUUAGGCAUCCGGCUUGACAGCUAAACACUUUAGACCACAAAGUUAACAUCAUGUUACAUACGUCUUACAGUGCACGUUACCCCAACAACAGAGGAUUGAGCAUCA
B22: chr3:176767854:176767855:-_ENSG00000177565_ENST00000430069|hu_hu|hu_hu_hu_mus_False|18_48 (ssRNA)
RNA: GGGAGUUCUACAGUCCGACGAUCGACAUCCUUGUUACUGGGCACGUCCUGCCCUCCUUCCCGUAUGCAGUGUCUAAGCACGAGCUGUGUAGAGCCACUCGUGCUGUUCUCACUGAGAUUCCAUAUUCUUGCCGUGGAGUCUCCCAACAGAGGAUUGAGCAUCA

Some of the results follow.

The experiment addresses T1, UNK ZnF1-3 (human, UniProt Q9C0B0 31-174).
T1 sequence: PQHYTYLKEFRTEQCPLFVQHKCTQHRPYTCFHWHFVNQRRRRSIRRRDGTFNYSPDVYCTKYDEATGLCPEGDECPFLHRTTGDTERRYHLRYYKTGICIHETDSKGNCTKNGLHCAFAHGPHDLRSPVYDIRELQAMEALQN
The experiment can be described thus: nsRBNS (natural sequence RNA bind-n-seq); RBNS binding buffer (assumed for nsRBNS): 25 mM Tris pH 7.5, 150 mM KCl, 3 mM MgCl2, 0.01% Triton X-100, 500 ug/ml BSA, 20 U/ml SUPERase-In, 4 C; UNK is unkempt and MSI1 is Musashi-1; names of the RNAs are library labels; protein concentration not given here; high values mean tight binding.
In turn, B1 gave a binding signal of 1.24 enrichment R.

B2 registered a binding signal of 0.698 enrichment R. Under B3 stands 0.744 enrichment R; under B4, 1.34 enrichment R; under B5, 0.904 enrichment R.

For B6, the binding signal came to 1.27 enrichment R. Then B7, with 2.72 enrichment R; and B8, with 1.35 enrichment R; and B9, with 1.08 enrichment R. Under B10 stands 1.12 enrichment R; under B11, 0.902 enrichment R. For the molecule B12, the binding signal amounted to 2.96 enrichment R. B13 had a binding signal of 2.45 enrichment R.

As for B14, the binding signal turned out to be 2.2 enrichment R. Under B15 stands 0.781 enrichment R; under B16, 0.464 enrichment R. B17 showed a binding signal of 1.31 enrichment R. Then B18, with 1.14 enrichment R. Molecule B19 had a binding signal of 1 enrichment R. Regarding B20, the binding signal was determined as 0.859 enrichment R. Under B21 stands 0.787 enrichment R; under B22, 0.397 enrichment R.
